Experimental findings from the supplement of paper PMC10037445 are described below.

Over roughly 2,900 compounds, “IRF Lucia reporter activity, fold change vs agonist alone” has its median near 0.9; the highest 2% begin near 2.8. This is one part of the list.

In test [1] the test system is RAW-Dual. The experiment in a line: IRF Lucia reporter activity, fold change vs agonist alone; cytotoxicity flag (confluency mask): not cytotoxic; higher = enhanced IRF activity. Summed up:
(§1)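 Cytotoxic wells were those whose IncuCyte confluency was below 70% of agonist controls in both mask sets. The cells were RAW-Dual macrophages at 50,000 cells/well in DMEM on 384-well plates, dosed with 50 nL of library stock by pin tool, stimulated with a PRR agonist 1 h later, and kept at 37 °C, 5% CO2 for 20 hours. IRF and NF-κB reporter activity, as fold change over agonist-alone wells, came from supernatant read by QuantiLuc luminescence and QuantiBlue absorbance, respectively.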

Test [2] concerns RAW-Dual. Kind of test: IRF Lucia reporter activity, fold change vs agonist alone; higher = enhanced IRF activity. As to conditions: agonist: MPLA (TLR4) […]. In a few lines: as §1
In test [3] the test system is RAW-Dual. The experiment in a line: IRF Lucia reporter activity, fold change vs agonist alone; cytotoxicity flag (confluency mask): cytotoxic (confluency <70% of control); higher = enhanced IRF activity. In a few lines: as §1
Setting [4] is: agonist: 3'3'-cGAMP (STING) 10 ug/mL.
The mark [5] stands for this setting: library stock concentration (final ~1000-fold dilution): 10 mM, cytotoxicity flag (confluency mask): not cytotoxic.
The mark [6] stands for this setting: library stock concentration (final ~1000-fold dilution): 10 mM, cytotoxicity flag (confluency mask): cytotoxic (confluency <70% of control).

Turning to `CO[C@H](c1c(NC(=O)Nc2cnc(-n3nccn3)c(Cl)c2)cnc2cc(Cl)nn12)[C@@H](C)OC` (library stock concentration (final ~1000-fold dilution): 10 mM), the results for the “IRF Lucia reporter activity” value in the test with RAW-Dual [1] (setting [4]) and with RAW-Dual [1] (agonist: LPS (TLR4) 0.1 ug/mL) were 0.719 and 1.04, respectively.
As for `COc1cc2ccc(=O)oc2c(OC)c1O` (library stock concentration (final ~1000-fold dilution): .1 mM), the “IRF Lucia reporter activity” value in the test with RAW-Dual [1] (setting [4]) was 1.07; in the test with RAW-Dual [1] (agonist: LPS (TLR4) 0.1 ug/mL), 0.255.
Regarding `CC(C)=CCc1cc(-c2coc3cc(O)ccc3c2=O)ccc1O` (library stock concentration (final ~1000-fold dilution): 10 mM), the “IRF Lucia reporter activity” value with RAW-Dual [1] (setting [4]) worked out at 1.74; in the test on RAW-Dual [1] (agonist: LPS (TLR4) 0.1 ug/mL), 1.04.
In the case of `OCC1OC(c2ccc(Cl)c(Cc3ccc(OC4CCOC4)cc3)c2)C(O)C(O)C1O` (configuration not stated) (library stock concentration (final ~1000-fold dilution): 10 mM), the “IRF Lucia reporter activity” value was found to be 1.1 with RAW-Dual [1] (setting [4]) and 1.29 with RAW-Dual [1] (agonist: LPS (TLR4) 0.1 ug/mL).
For `CC1CNc2c(cccc2S(=O)(=O)NC(CCCNC(=N)N)C(=O)N2CCC(C)CC2C(=O)O)C1.O` (configuration not stated) (library stock concentration (final ~1000-fold dilution): 10 mM), in that order: 0.961 and 1.23.
On to `CC1CNc2c(cccc2S(=O)(=O)NC(CCCNC(=N)N)C(=O)N2CCC(C)CC2C(=O)O)C1.O` (configuration not stated), for which, in the test on RAW-Dual [2] (setting [5]), the “IRF Lucia reporter activity” value came out at 0.985.
On to `CN1C2CCCC1CC(NC(=O)c1nn(C)c3ccccc13)C2` (configuration not stated), for which the “IRF Lucia reporter activity” value in the test on RAW-Dual [2] (setting [5]) came out at 1.01.
As for `CN1C2CCCC1CC(NC(=O)c1nn(C)c3ccccc13)C2` (configuration not stated) (library stock concentration (final ~1000-fold dilution): 10 mM), the “IRF Lucia reporter activity” value with RAW-Dual [1] (setting [4]) stood at 0.985; in the test on RAW-Dual [1] (agonist: LPS (TLR4) 0.1 ug/mL), 1.27.
As to `CCCCCCCCc1ccc(CCC(N)(CO)CO)cc1.Cl`, the “IRF Lucia reporter activity” value in the test with RAW-Dual [2] (setting [6]) was determined as 0.745.
With `CCCCCCCCc1ccc(CCC(N)(CO)CO)cc1.Cl` (library stock concentration (final ~1000-fold dilution): 10 mM), the “IRF Lucia reporter activity” value turned out to be 0.137 with RAW-Dual [3] (setting [4]) and 0.402 with RAW-Dual [3] (agonist: LPS (TLR4) 0.1 ug/mL).
Consider `O=C(Cc1cccc(OC(F)(F)F)c1)Nc1ccc(CCCCc2nnc(NC(=O)Cc3ccccn3)s2)nn1` (library stock concentration (final ~1000-fold dilution): 10 mM), for which the “IRF Lucia reporter activity” value with RAW-Dual [1] (setting [4]) worked out at 0.699; in the test with RAW-Dual [1] (agonist: LPS (TLR4) 0.1 ug/mL), 1.33.
Turning to `CCN(CC)CC#CCOC(=O)C(O)(c1ccccc1)C1CCCCC1` (configuration not stated) (library stock concentration (final ~1000-fold dilution): 10 mM), the “IRF Lucia reporter activity” value in the test with RAW-Dual [1] (setting [4]) stood at 1.08; in the test on RAW-Dual [1] (agonist: LPS (TLR4) 0.1 ug/mL) it was 2.22.
`CCN(CC)CC#CCOC(=O)C(O)(c1ccccc1)C1CCCCC1` (configuration not stated): in the test with RAW-Dual [2] (setting [5]), the “IRF Lucia reporter activity” value worked out at 1.
Turning to `CC(C)Nc1cccnc1N1CCN(C(=O)c2cc3cc(NS(C)(=O)=O)ccc3[nH]2)CC1.CS(=O)(=O)O`, the “IRF Lucia reporter activity” value with RAW-Dual [2] (setting [5]) came out at 0.95.
Consider `CC(C)Nc1cccnc1N1CCN(C(=O)c2cc3cc(NS(C)(=O)=O)ccc3[nH]2)CC1.CS(=O)(=O)O` (library stock concentration (final ~1000-fold dilution): 10 mM), for which the “IRF Lucia reporter activity” value in the test on RAW-Dual [1] (setting [4]) was found to be 0.844; with RAW-Dual [1] (agonist: LPS (TLR4) 0.1 ug/mL), 0.728.
As for `CN(c1ncccc1CNc1nc(Nc2ccc3c(c2)CC(=O)N3)ncc1C(F)(F)F)S(C)(=O)=O.Cl`, the “IRF Lucia reporter activity” value with RAW-Dual [2] (setting [6]) was 0.0257.
For the compound `CN(c1ncccc1CNc1nc(Nc2ccc3c(c2)CC(=O)N3)ncc1C(F)(F)F)S(C)(=O)=O.Cl` (library stock concentration (final ~1000-fold dilution): 10 mM), the “IRF Lucia reporter activity” value in the test on RAW-Dual [3] (setting [4]) is 0.0132; with RAW-Dual [3] (agonist: LPS (TLR4) 0.1 ug/mL), 0.0259.
Turning to `c1ccc2c(-c3nccs3)c[nH]c2c1` (library stock concentration (final ~1000-fold dilution): 10 mM), the “IRF Lucia reporter activity” value turned out to be 0.706 with RAW-Dual [1] (setting [4]) and 1.19 with RAW-Dual [1] (agonist: LPS (TLR4) 0.1 ug/mL).
Consider `CCN(Cc1ccncc1)C(=O)C(CO)c1ccccc1` (configuration not stated), for which the “IRF Lucia reporter activity” value in the test on RAW-Dual [2] (setting [5]) stood at 0.932.
For `CCN(Cc1ccncc1)C(=O)C(CO)c1ccccc1` (configuration not stated) (library stock concentration (final ~1000-fold dilution): 10 mM), the figures for the “IRF Lucia reporter activity” value in the test on RAW-Dual [1] (setting [4]) and in the test on RAW-Dual [1] (agonist: LPS (TLR4) 0.1 ug/mL) were 1.04 and 0.851, respectively.
`CNCCC(Oc1cccc2ccccc12)c1cccs1.Cl` (configuration not stated): the “IRF Lucia reporter activity” value in the test on RAW-Dual [2] (setting [6]) was determined as 1.45.
As for `CNCCC(Oc1cccc2ccccc12)c1cccs1.Cl` (configuration not stated) (library stock concentration (final ~1000-fold dilution): 10 mM), the “IRF Lucia reporter activity” value in the test on RAW-Dual [3] (setting [4]) was 0.792; with RAW-Dual [3] (agonist: LPS (TLR4) 0.1 ug/mL), 1.18.
For `O=C(O)c1cc(O)c2c(c1)C(C1c3cc(C(=O)O)cc(O)c3C(=O)c3c(OC4OC(CO)C(O)C(O)C4O)cccc31)c1cccc(OC3OC(CO)C(O)C(O)C3O)c1C2=O` (configuration not stated) (library stock concentration (final ~1000-fold dilution): 2 mM), the results for the “IRF Lucia reporter activity” value with RAW-Dual [1] (setting [4]) and with RAW-Dual [1] (agonist: LPS (TLR4) 0.1 ug/mL) were 0.773 and 0.988, respectively.
In the case of `O=C(O)c1cc(O)c2c(c1)C(C1c3cc(C(=O)O)cc(O)c3C(=O)c3c(OC4OC(CO)C(O)C(O)C4O)cccc31)c1cccc(OC3OC(CO)C(O)C(O)C3O)c1C2=O` (configuration not stated), the “IRF Lucia reporter activity” value in the test on RAW-Dual [2] (library stock concentration (final ~1000-fold dilution): 2 mM, cytotoxicity flag (confluency mask): not cytotoxic) was 1.11; in the test on RAW-Dual [2] (setting [5]), 1.03.
`O=C(O)c1cc(O)c2c(c1)C(C1c3cc(C(=O)O)cc(O)c3C(=O)c3c(OC4OC(CO)C(O)C(O)C4O)cccc31)c1cccc(OC3OC(CO)C(O)C(O)C3O)c1C2=O` (configuration not stated) (library stock concentration (final ~1000-fold dilution): 10 mM): the “IRF Lucia reporter activity” value is 0.928 in the test on RAW-Dual [1] (setting [4]) and 0.947 in the test on RAW-Dual [1] (agonist: LPS (TLR4) 0.1 ug/mL).
